# Reference: PubChem BioAssay AID1347165 (National Center for Advancing Translational Sciences (NCATS), 2019)
# Among all 220,000 compounds or so, about 5,700 (2.6%) were called active. Inconclusive results, whose numbers are uncertain, are shown with a selection of clear calls. The call rests on the fitted dose curve; in most records, active means well fitted inhibition curve with a large enough effect; inconclusive means small, poorly fitted or top-dose-only effect; inactive means no such curve, though single readings can be large or run the other way. Where the call is inconclusive, the potency comes from a doubtful curve fit.
# Molecular target: Lysine-specific demethylase 5B (Homo sapiens) (UniProt Q9UGL1)
# Sequence of UniProt Q9UGL1 (Q9UGL1 whole entry, looked up): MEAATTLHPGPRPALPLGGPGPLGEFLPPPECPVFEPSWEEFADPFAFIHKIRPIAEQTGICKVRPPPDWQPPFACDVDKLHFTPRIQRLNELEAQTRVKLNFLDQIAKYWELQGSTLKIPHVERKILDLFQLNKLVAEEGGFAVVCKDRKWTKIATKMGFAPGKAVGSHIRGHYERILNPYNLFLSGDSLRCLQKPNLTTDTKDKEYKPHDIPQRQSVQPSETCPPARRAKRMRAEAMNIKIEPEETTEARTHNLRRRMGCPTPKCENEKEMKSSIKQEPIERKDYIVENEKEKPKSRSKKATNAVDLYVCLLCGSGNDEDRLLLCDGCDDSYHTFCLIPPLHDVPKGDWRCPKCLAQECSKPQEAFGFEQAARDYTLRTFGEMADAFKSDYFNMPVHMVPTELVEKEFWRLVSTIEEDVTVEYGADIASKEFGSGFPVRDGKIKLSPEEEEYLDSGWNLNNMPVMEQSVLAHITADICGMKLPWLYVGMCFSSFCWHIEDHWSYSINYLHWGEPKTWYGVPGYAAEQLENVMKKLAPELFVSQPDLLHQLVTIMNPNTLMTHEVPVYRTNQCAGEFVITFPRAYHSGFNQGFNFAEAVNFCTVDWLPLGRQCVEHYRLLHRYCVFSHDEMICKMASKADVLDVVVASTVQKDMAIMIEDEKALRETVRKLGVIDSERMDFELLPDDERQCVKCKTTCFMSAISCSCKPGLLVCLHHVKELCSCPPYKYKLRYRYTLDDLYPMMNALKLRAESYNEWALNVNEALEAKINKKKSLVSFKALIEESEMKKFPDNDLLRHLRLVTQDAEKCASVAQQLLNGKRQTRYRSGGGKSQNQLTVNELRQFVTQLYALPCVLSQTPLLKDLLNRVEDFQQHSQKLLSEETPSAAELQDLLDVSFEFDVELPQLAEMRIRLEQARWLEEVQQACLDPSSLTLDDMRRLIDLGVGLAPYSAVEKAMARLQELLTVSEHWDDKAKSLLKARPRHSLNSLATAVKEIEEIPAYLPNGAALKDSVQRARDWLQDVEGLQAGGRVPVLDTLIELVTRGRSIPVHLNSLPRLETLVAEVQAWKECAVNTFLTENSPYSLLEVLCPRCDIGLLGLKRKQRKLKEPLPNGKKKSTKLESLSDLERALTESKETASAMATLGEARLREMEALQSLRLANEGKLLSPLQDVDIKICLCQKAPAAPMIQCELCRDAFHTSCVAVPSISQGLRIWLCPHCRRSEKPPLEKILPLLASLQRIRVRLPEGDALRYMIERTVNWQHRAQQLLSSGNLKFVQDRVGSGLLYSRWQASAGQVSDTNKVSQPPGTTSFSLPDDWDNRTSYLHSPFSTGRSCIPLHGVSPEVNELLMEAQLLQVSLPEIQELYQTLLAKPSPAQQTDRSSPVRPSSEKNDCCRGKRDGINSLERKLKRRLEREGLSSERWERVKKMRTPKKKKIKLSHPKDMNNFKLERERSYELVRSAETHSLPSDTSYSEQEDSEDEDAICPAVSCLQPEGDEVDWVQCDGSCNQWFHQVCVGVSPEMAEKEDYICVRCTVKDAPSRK
# Assay: Primary screen for KDM5B Histone Demethylases FDH-coupled qHTS; further: nearly all actives have a fitted effect of over 70% in size; on activity change, negative = inhibition: 0% is about no effect
# Details: FDH-coupled NADH fluorescence (FDH is formaldehyde dehydrogenase); activity change, negative = inhibition: at 57.7 µM (top of the series) unless noted
# Summary of the method: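 KDM5BΔAP (200 nM final) in 50 mM HEPES pH 7.5, 0.01% Tween-20 was preincubated 10 min at RT with compound over a concentration range. Substrate mix (H3K4me3 12.5 µM, α-KG 25 µM, Fe²⁺, ascorbate, NAD⁺, FDH) was added, and NADH fluorescence change over 30 min gave dose-response curves.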
# Potency means the concentration at half of the fitted maximal effect; tags describe the fitted curve by direction and shape.
SMILES,Potency,"activity change, negative = inhibition"
COc1ccc(C2C=C(c3ccccc3)Nc3nc(NC(=O)c4ccc(C)cc4)nn32)cc1 (configuration not stated),"inconclusive: 4.47 µM [inhibitor, partial curve, poor fit]",–
Cc1cc(C(=O)N2CCN(S(=O)(=O)c3ccc(C(C)C)cc3)CC2)c(C)n1C(C)C,–,inactive: -24%
COc1cc(Cl)c(C)cc1NC(=O)Cn1ccn2nc(-c3ccc(F)cc3)c(CO)c2c1=O,–,inactive: 1.19%
COc1ccc(CN2CCC3(CC2)Cc2ccccc2CNC3=O)cc1,"inconclusive: 56.2 µM [inhibitor, partial curve, poor fit]",–
CCn1ccc(C(=O)N2C[C@@H](Oc3ccccc3)C[C@H]2C(=O)NC2CC2)n1,–,inactive: -28.8%
COc1ccc2oc(=O)c(-c3ccccc3)c(C)c2c1,"inconclusive: 1.78 µM [inhibitor, partial curve, poor fit]",–
COc1ccc2c(CSc3nnnn3-c3ccccc3)cc(=O)oc2c1,"inconclusive: 25.1 µM [inhibitor, single point]",–
O=C(Nc1ccc(Oc2ccccc2)cc1)N[C@H]1CO[C@H]2[C@@H]1OC[C@H]2OC(=O)Nc1cccc2ccccc12,"inconclusive: 25.1 µM [inhibitor, partial curve, poor fit]",–
COc1ccc2c(CNCc3ccc(C)o3)c(C(=O)O)n(Cc3ccccc3)c2c1,"inconclusive: 17.8 µM [inhibitor, partial curve, poor fit]",–
COc1ccccc1NC(=O)c1c(NCc2sccc2C)sc2c1CCCCC2,"inconclusive: 25.1 µM [inhibitor, partial curve, poor fit]",–
O=S1(=O)N=C(SCc2ccccc2)N(Cc2ccccc2)c2ccccc21,–,inactive: 1.07%
CN(C(=O)Cn1c(=O)n(CCCS(=O)(=O)C2CCCCC2)c(=O)c2ccccc21)c1ccccc1,"inconclusive: 35.5 µM [inhibitor, single point]",–
CCc1cc(=O)n(CC(=O)NCc2ccc(OC)cc2)c(N2CCOCC2)n1,"inconclusive: 15.8 µM [inhibitor, single point]",–
CCN1CCN(C(c2ccc(OC)cc2)c2c(O)cc(C)n(CCOC)c2=O)CC1 (configuration not stated),"inconclusive: 50.1 µM [inhibitor, single point]",–
Cc1cc(C)c2oc(C(=O)N(Cc3ccc(F)cc3)C3CCS(=O)(=O)C3)cc(=O)c2c1 (configuration not stated),"inconclusive: 31.6 µM [inhibitor, single point]",–
COc1ccccc1CCNC(=O)C1CC(c2ccccc2)CN(C(=O)C2CC2)C1 (configuration not stated),–,inactive: -19.6%
CCCCn1c(N)c(N(CCC)C(=O)c2cccnc2SC)c(=O)[nH]c1=O,–,inactive: -8.95%
CCCCOc1c(Cl)cc(C(=O)N(Cc2ccc(C)o2)C2CCS(=O)(=O)C2)cc1Cl (configuration not stated),"inconclusive: 25.1 µM [inhibitor, partial curve, poor fit]",–
Clc1c2ccccc2c(/C=N/N2CCCCC2)c2ccccc12,–,inactive: 243%
CCn1nccc1-c1nc(-c2nnn3c2COC(c2ccc(C)cc2)C3)no1 (configuration not stated),–,inactive: -17.5%
Cc1ccc(S(=O)(=O)N2CCN(C3CCN(CCc4ccccc4)C3=O)CC2)cc1C (configuration not stated),–,inactive: -1.74%
Cc1cccc(NC(=O)C2CCN(S(=O)(=O)c3cccc4nsnc34)CC2)c1C,"inconclusive: 14.1 µM [inhibitor, partial curve, poor fit]",–
O=C1NCCCCCCN(Cc2ccncc2)[C@@H]2CN(Cc3ccncc3F)CC[C@H]12,active: 20 µM,–

SMILES,Potency,"activity change, negative = inhibition"
CC(=O)N1CCC(C(=O)NCc2cc3n(n2)CCN(C2CCCCC2)C3)CC1,"inconclusive: 31.6 µM [inhibitor, single point]",–
CC(C)(C)C(=O)NC1CCCc2c1[nH]c1ccc(F)cc21 (configuration not stated),"inconclusive: 15.8 µM [inhibitor, partial curve]",–
O=C(CSc1ccc2nnc(CCNC(=O)c3ccccc3)n2n1)Nc1ccccc1,–,inactive: 22.4%
Cc1cccc2nc(-c3cccnc3)c(Nc3ccc(C(C)C)cc3)n12,"inconclusive: 35.5 µM [inhibitor, partial curve, poor fit]",–
Oc1ccc(-c2nc(C3CC3)nc3c2CN(Cc2ccccc2)CC3)cc1,"inconclusive: 28.2 µM [inhibitor, partial curve, poor fit]",–
Cc1cc(C)cc(NC(=O)CSc2nccn2-c2ccccc2)c1,–,inactive: -12.3%
CN(Cc1ccccc1)C(=O)C[C@@H]1c2nc(NC(=O)c3ccc(F)cc3)sc2C[C@@H]2[C@](C)(CO)[C@H](O)CC[C@]21C,active: 35.5 µM,–
Cc1cc(Br)ccc1NC(=O)c1cc2c(=O)n(C)c3cc(Cl)ccc3c2s1,"inconclusive: 14.1 µM [inhibitor, partial curve, poor fit]",–
Cc1oc(-c2nc(C#N)c(NCCN(C)C)o2)cc1S(=O)(=O)N(C)C,"inconclusive: 25.1 µM [inhibitor, partial curve, poor fit]",–
O=C(NC1CC(=O)N(c2ccccc2)C1)C1CCCCC1 (configuration not stated),–,inconclusive: -32.5% [inhibitor]
CN(C)CCCOC(=O)c1ccc(C(C)(C)C)cc1,–,inactive: 0.115%
COc1ccc(S(=O)(=O)c2cn(C)c3cc(N4CCCCC4)c(F)cc3c2=O)cc1,"inconclusive: 2.24 µM [inhibitor, partial curve, poor fit]",–
COCC(=O)Nc1ccc(-c2c(-c3ccccc3OC)nn(-c3ccc(C)cc3)c2OC(C)=O)cc1,active: 22.4 µM,–
CN(Cc1ccc(Cl)c(Cl)c1)C(=O)c1cc2ccccc2oc1=O,–,inactive: 1.19%
CC(SC1CCCC1)C(=O)Nc1cccc(Cl)c1 (configuration not stated),–,inactive: 16.8%
CN1CCCN(C(=O)C2(Oc3ccc4ncccc4c3)CCNCC2)CC1,"inconclusive: 20 µM [inhibitor, partial curve, poor fit]",–
Nc1nccnc1C(=O)NCc1ccccc1Cn1cccn1,"inconclusive: 31.6 µM [inhibitor, partial curve, poor fit]",–
CCCc1noc(-c2cccn3c(CNC(=O)CC4CCCCC4)nnc23)n1,"inconclusive: 3.16 µM [inhibitor, partial curve, poor fit]",–
O=C(NCc1nnc2ccc(-c3ccc(Cl)cc3)nn12)c1ccco1,"inconclusive: 15.8 µM [inhibitor, partial curve, poor fit]",–
Cc1ccc(C(=O)/C=C/c2ccc(/C=C/C(=O)c3ccc(C)cc3)o2)cc1,"inconclusive: 25.1 µM [inhibitor, partial curve, poor fit]",–
Cc1cc(=O)oc2cc(OCC(=O)N3CCc4sccc4C3c3ccccc3)ccc12 (configuration not stated),"inconclusive: 39.8 µM [inhibitor, partial curve, poor fit]",–
O=C(Nc1nnc(-c2ccccc2Cl)s1)c1ccccc1F,"inconclusive: 25.1 µM [inhibitor, partial curve, poor fit]",–
CN1CCN(CCCNC(=O)Cn2c(-c3cccs3)cc3ccccc32)CC1,"inconclusive: 35.5 µM [inhibitor, partial curve, poor fit]",–

SMILES,Potency,"activity change, negative = inhibition"
Cc1ccc(-c2cc(N)n3nc(-c4ccc(C)cc4)cc3n2)cc1,"inconclusive: 3.16 µM [inhibitor, full curve, poor fit]",–
CCOC(=O)c1noc2ncnc(N(CCC(=O)OC)c3ccccc3)c12,"inconclusive: 15.8 µM [inhibitor, partial curve, poor fit]",–
COc1cccc(CN2CCCC(O)(CN3CCC(C)CC3)C2=O)c1 (configuration not stated),–,inactive: 7.74%
COc1ccc(CNC(=O)[C@@H]2CCC[C@@H](NCc3cccc(Cl)c3)CN(C)C(=O)C2)cc1,–,inactive: -12%
O=C(O)c1cccc2ncccc12,–,inactive: -4.62%
O=C(c1ccc(Cl)cc1Cl)N(CCS(=O)(=O)N1CCCC1)Cc1ccncc1,"inconclusive: 28.2 µM [inhibitor, single point]",–
CC(=O)Nc1ccc(NC(=O)c2c[nH]c3ccccc23)cc1,–,inactive: -8.38%
Cc1cccc(C(=O)NNC(=S)NC(=O)c2ccccc2)c1,"inconclusive: 28.2 µM [inhibitor, single point]",–
Cc1cn2nc(C(=O)N3CCCC3)cc2c(N2CCSCC2)n1,active: 28.2 µM,–
CCOC(=O)C1(Cc2ccc(F)cc2F)CCCN(C(=O)Nc2ccc3c(c2)OCO3)C1 (configuration not stated),"inconclusive: 5.01 µM [inhibitor, single point]",–
COc1ccc(C2Cn3nnc(-c4noc(-c5ccc(C)cc5C)n4)c3CO2)cc1 (configuration not stated),"inconclusive: 28.2 µM [inhibitor, single point]",–
COc1cc(NC2c3ccccc3C(=O)N2c2cccnc2)cc(OC)c1OC (configuration not stated),–,inactive: 7.21%
COc1ccc(NCC(=O)n2c(C)c(C)c3ccccc32)cc1OC,"inconclusive: 25.1 µM [inhibitor, partial curve, poor fit]",–
CCOC(=O)c1cc(C)nc2c1c(=O)n(Cc1nc(-c3ccc(C(C)C)cc3)oc1C)c(=O)n2C,"inconclusive: 28.2 µM [inhibitor, single point]",–
CCOCCCNC(=O)N[C@H](C(=O)O)C(C)CC (some centres not stated),–,inactive: 20.8%
O=C(Nc1ccc(NC(=O)c2ccccc2O)cc1)Nc1ccc(F)cc1F,"inconclusive: 17.8 µM [inhibitor, partial curve, poor fit]",–
COc1cccc(CN2CCc3nc(C(=O)NCC4CC4)oc3CC2)c1,active: 39.8 µM,–
CC1=C(C(=O)OC(C)(C)C)C(c2ccc(Cl)cc2)C(C#N)=C(N)O1 (configuration not stated),"inconclusive: 28.2 µM [inhibitor, partial curve, poor fit]",–
NC(=O)C(Sc1cc(Cl)ccc1Cl)c1ccccc1 (configuration not stated),–,inactive: 16.8%
O=C1NCCCCCN(S(=O)(=O)c2ccccc2)[C@H]2CCCC[C@@H]12,–,inactive: 4.24%
Cc1nonc1CN1CCN(C(C(=O)O)c2c[nH]c3ccc(Cl)cc23)CC1 (configuration not stated),–,inactive: 15.1%
